# Laboratory results from the supplement of paper PMC11417369.
# ± gives the standard deviation of the averaged measurements. The list shows a part of the results.
# Test system: PfAP2-G AP2 domain (GST-tagged)
# Test: gcPBM binding intensity (ln(normalized median fluorescence intensity)); higher = stronger DNA binding
# Summary of the method: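 Binding of GST-tagged P. falciparum DNA-binding domains, expressed in E. coli and used at about 25 μg on average, was carried out for 1 h in 1× PBS containing 1% milk, 0.2 mg/ml BSA, 0.5% salmon testes DNA and 0.03% Triton X-100. The target was an Agilent 4 × 180k array of primer-extended double-stranded 36-bp intergenic genomic probes plus negative controls, read with Alexa488 anti-GST antibody at 488 nm. Binding intensity is the highest Masliner-normalised natural-log median intensity across replicate spots of either probe orientation.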
row,Sequence,gcPBM binding intensity (ln)
1,ACAAAAATGAGATGGTGTACGCACAAATAAATAATA [XGTACX_site5221],11.7 ± 0.79
2,TTTAATTTATATAATGATATTAAGTTGGTTATTAGG [CACACA_negctrl_site329],9.84 ± 0.18
3,AAAATATTTCTTCTTTGTACTTATATATATTTAATT [XGTACX_site5446],11.3 ± 0.77
4,TATTCATATTCCAAGTGTACACATAAATCCCTAATA [XGTACX_site4131],11.5 ± 0.9
5,CATCCAAAAATATTATGTACTAAATTTGGATGTATT [XGTACX_site3954],10.9 ± 0.61
6,TATAAAATTATGTGTACACAAATATAACTTTTCTTT [CACACA_site5554],11.7 ± 0.95
7,AAATAATATCATAAATGTACATATATCATATTATTA [XGTACX_site5372],10.8 ± 0.55
8,TACTTACCTATAATAACACACAAGAAAAAAATAAAA [CACACA_site6616],10.1 ± 0.37
9,TATGCTTCAAAATTGTGTACATATATAATATATTAT [XGTACX_site6760],11.4 ± 0.76
10,ATAATAACTTGTAAGGTGCATTTTATGTTTTCTTAA,10.1 ± 0.3
11,AGAAATAATATTATTCAAGTATTTATTTAATTTTCA [GTGCAC_negctrl_site475],9.5 ± 0.24
12,CTCATCCTTACATACACACACATATATTTATTTATA [CACACA_site6202],10.17 ± 0.071
13,AAATTATAGAATCATTGTACTTTTTTTTTTTTTTTT [XGTACX_site1280],11.5 ± 0.79
14,CAAATATATATTTATTGTACATATTGTTTATATGGT [XGTACX_site5246],11 ± 0.61
15,TTAATAATTATAACATGTACATACACTAAATTTTTT [XGTACX_site8953],11.3 ± 0.73
16,AATGTATATAGAAACATGCACACGTGGTTGTATATA [CACACA_site3278],10.32 ± 0.042
17,TTGTGTTAACTACCATGTACTTATACATCATAGGAA [XGTACX_site6627],11 ± 0.64
18,TCCTACATATAAAAATGTACCCATTGTTTTTTTTTT [XGTACX_site7205],11.1 ± 0.64
19,TATATATATATATATACACACATATACATATTGTTT [CACACA_site3499],10.2 ± 0.57
20,TTTTTGTATGCTTCCCGATTACATTATGTTGTAAAT [CACACA_negctrl_site227],10.12 ± 0.014
21,ATTTATGTTATATATACACACACAAAAGAAAAAAAA [CACACA_site8977],10.2 ± 0.37
22,ATATCCGTTCAAAGATGTACATATATATTCTATAGA [XGTACX_site5354],11.3 ± 0.57
23,AATGCAAATAATAAAACACACAAAAAAAAGAAAAAA [CACACA_site1184],9.86 ± 0.028

row,Sequence,gcPBM binding intensity (ln)
1,TCATACAAACCTATTTGTACATAAGTATAATATATA [XGTACX_site4284],10.7 ± 0.49
2,ATACATATAAAAAAGTGTACATATTAAAATAAGTAT [XGTACX_site1310],11.6 ± 1.1
3,TTTTTTATAAATCAAATGAAAAATAAACTATTCAGA [CACACA_negctrl_site1568],9.85 ± 0.23
4,ATAATATAAACATACACACACACATCTATATTTATA [CACACA_site7381],9.945 ± 0.021
5,TTATGTTATATAAAAAGTACAAATTTTTTTTAATTA [XGTACX_site3435],11.1 ± 0.83
6,ATTATTATTATATATGCATGTAAAATATTAAAGTAC [TGCATGCA_site914],10.5 ± 0.45
7,TATTGCCCTGGACACACACACATATATATATATATA [CACACA_site5389],10.8 ± 0.57
8,CACAAAAATTTATACACACACATATATAATATATAT [CACACA_site152],10.1 ± 0.18
9,AAGGATATGAAAAGTAGTACAAAATTTAGAACACCC [XGTACX_site4758],11.5 ± 0.67
10,ATTATATTCTCCTTCACACACAAAAATATTTCATCA [CACACA_site5326],10.1 ± 0.11
11,TTACGATTAAATATAACACACAACATATTTTTAATA [CACACA_site2967],9.855 ± 0.049
12,ATCTTTTACGAATACACACACATAAAGAAAAAAAAA [CACACA_site1331],10.2 ± 0.23
13,AAGTATTACAACCACACACACACCTATATATCATAG [CACACA_site7878],10.3 ± 0.25
14,TTGATATATAATAATACACACTTACATAATTAATTA [CACACA_site4320],10.1 ± 0.16
15,ATTTCAAATTAATTTACACACTTCATACTAAAAGAC [CACACA_site3176],10.1 ± 0.2
16,TAAATACAGACATATACACACATATATATATATATA [CACACA_site4382],10.1 ± 0.2
17,TTTCAATTTATCAGTGTGCACAAAAATAAAATAAAA,10.7 ± 0.6
18,ATGTATATGTTTTGTTGTACAAGTATTTTATATCTT [XGTACX_site3588],11.3 ± 0.78
19,TGAATTTAGATATATACACACAAAAGTAAATACAAT [CACACA_site5548],10.1
20,TAAAGATGTATTTATTCACACATCTCATATAATGAA [CACACA_site5229],9.785 ± 0.035
21,TTATGTATCCTTATAAGAAAAAAAAAAAAATTCTCT [CACACA_negctrl_site1183],9.85 ± 0.15
22,AATAAAAATATAGGCACACATATTAAAATGAACTTA [CACACA_site830],10.2 ± 0.18
